Data published in PubChem BioAssay AID485364 (National Center for Advancing Translational Sciences (NCATS), 2010).
Screen size: about 360,000 compounds; about 11,000 (3.1%) were called active. The inconclusive results got no clear call from the source; some entries with a clear call stand among them for comparison. Calls come from the whole dose curve; as a rule, active = well fitted inhibition curve with a large enough effect; inconclusive = small, poorly fitted or top-dose-only effect; inactive = no such curve, though single readings can be large or run the other way. No potency is given beside an inconclusive call; the fits are too rough.
% is set by controls: 0 for no effect and ±100 for the full control effect; potency is the fitted concentration of half-maximal effect; tags give direction and shape of the fitted curve.
Note: nearly all actives have a fitted effect of over 60% in size.

Each molecule was assayed against Schistosoma mansoni thioredoxin glutathione reductase (TGR) (UniProt Q962Y6) (assay: qHTS Assay for the Inhibitors of Schistosoma Mansoni Peroxiredoxins). Conditions: purified TGR, DTNB reduction, TNB absorbance 405 nm; activity change, negative = inhibition: at 114 µM (top of the series) unless noted.
Procedure, shortened: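 First, TGR (20 nM dispensed) and NADPH were mixed with compound. Second, a 15 min room-temperature incubation followed. Third, further NADPH and then DTNB were added to start the reaction. Finally, TNB absorbance was monitored kinetically.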
With `O=C(NCc1ccccc1)c1ccc(NC(=O)C2CCCO2)cc1` (stereo not drawn) the Potency was inconclusive [inhibitor, full curve, poor fit]. In the case of `COc1ccccc1CNC(=O)COC(=O)c1ccc([N+](=O)[O-])o1`, the Potency was inconclusive [inhibitor, partial curve]. With `CC(Oc1ccccc1F)C(=O)NNC(=O)c1ccc(F)c(S(=O)(=O)N2CCOCC2)c1` (stereo not drawn) the “activity change, negative = inhibition” value was inactive: -0.691%. With `Oc1cccnc1SCc1ccccc1` the Potency was inconclusive [inhibitor, partial curve]. With `CCN(CC)C(=O)c1cc(-c2ccc(Br)cc2)on1` the “activity change, negative = inhibition” value was inactive: 0%. With `Cc1ccc(NC(=O)Cn2c(=O)n(-c3ccc(C)cc3)c(=O)c3c2cnn3C)cc1` the “activity change, negative = inhibition” value was inactive: -2.17%. In the case of `Cc1cc(C)cc(N(C(=O)Cn2nnc3ccccc32)C(C(=O)NCc2ccco2)c2ccncc2)c1` (stereo not drawn), the Potency was active: 35.5 µM. `COc1cc(C(=O)OCC(=O)NC(=O)NCc2ccccc2)ccc1OC(F)F` was tested, and the “activity change, negative = inhibition” value was inactive: -14.2%. `COc1ccccc1NC(=O)Cc1csc(NC(=S)Nc2ccccc2)n1` was tested, and the Potency was inconclusive [inhibitor, full curve]. In the case of `CCOC(=O)C(NC(=O)c1ccc(F)cc1)(Nc1sc2c(c1C(N)=O)CCC2)C(F)(F)F` (stereo not drawn), the Potency was inconclusive [inhibitor, partial curve]. With `COc1ccc(-n2c(O)c(Cc3ccccc3)c(=O)n3nc(-c4ccccc4)c(=O)cc23)cc1` the “activity change, negative = inhibition” value was inactive: -23.6%. For `O=C(CN(CCc1ccccc1)C(=O)CN1C(=O)COc2ccccc21)NCc1ccco1`, the Potency was inconclusive [inhibitor, partial curve, poor fit]. In the case of `CCN(CC(=O)Nc1ccc2c(c1)OCCO2)C(=O)c1cccc(OCC(C)C)c1`, the Potency was inconclusive [inhibitor, single point]. With `CC12CN(C(=O)c3ccco3)CC(c3ccccc3)(CN(C(=O)c3ccco3)C1)C2=O` the Potency was inconclusive [inhibitor, partial curve, poor fit]. In the case of `Nc1cc(-c2ccncc2)c[nH]c1=O`, the Potency was active: 39.8 µM. With `COc1ccccc1NC(=O)Nc1cc(F)ccc1F` the “activity change, negative = inhibition” value was inactive: 3.24%. In the case of `CCN(c1ccccc1C)S(=O)(=O)c1nnc(NC(=O)c2ccccc2C)s1`, the Potency was inconclusive [inhibitor, single point]. For `Cc1ccccc1-c1nc(CN2CCN(C(=O)c3ccco3)CC2)c(C)o1`, the Potency was inconclusive [inhibitor, partial curve, poor fit]. `Cc1ccc2nc(N3C(=O)C(O)=C(C(=O)c4ccc(C)o4)C3c3ccc(O)cc3)sc2c1` (stereo not drawn) was tested, and the “activity change, negative = inhibition” value was inactive: -4.03%. In the case of `Cc1ccc2cc(COC(=O)c3ccco3)c(=O)[nH]c2c1`, the Potency was active: 44.7 µM. In the case of `CCOC(=O)c1c(C)[nH]c(C(=O)COC(=O)C2CC2C)c1C` (stereo not drawn), the “activity change, negative = inhibition” value was inactive: 9.46%. With `CC1(C)CC(=O)C(N=Nc2cccc(F)c2C#N)=C(O)C1` the Potency was active: 14.1 µM. With `COc1ccc(C(=O)n2nnc3ccccc32)cc1OC` the Potency was active: 6.31 µM. For `CCc1nnc(NS(=O)(=O)c2ccc(NC(=S)Nc3ccc(F)cc3)cc2)s1`, the Potency was inconclusive [inhibitor, partial curve]. `COc1cc(/C=c2\sc3nc(=O)c(-c4ccccc4)nn3c2=O)ccc1OCCC(C)C` was tested, and the “activity change, negative = inhibition” value was inactive: -0.995%. For `CCOc1ccc(C2C(C(=O)Nc3ccccc3C)=C(C)Nc3nnnn32)cc1` (stereo not drawn), the “activity change, negative = inhibition” value was inactive: -1.01%. With `CC1CCN(C(=O)c2[nH]cnc2C(=O)N[C@@H](C)c2ccccc2)CC1` the “activity change, negative = inhibition” value was inactive: -6.89%. `CN(Cc1cc([N+](=O)[O-])ccc1Cl)C(=O)C[n+]1ccccc1` was tested, and the Potency was inconclusive [inhibitor, single point]. With `CCC[n+]1c2ccccc2cc2ccccc21` the Potency was inconclusive [inhibitor, single point]. `Cc1noc(C)c1COC(=O)c1cc2c3ccccc3n(C)c2s1` was tested, and the activity change, negative = inhibition was inconclusive: -39.4% [inhibitor]. In the case of `Cc1ccc(C(=O)NC(=S)NCc2cccnc2)cc1C`, the Potency was active: 50.1 µM. For `O=C(NCc1ccco1)c1sc2cc(Cl)ccc2c1Cl`, the Potency was active: 39.8 µM. For `O=C(NNC1CC(=O)N(c2ccc(Br)cc2)C1=O)c1cccs1` (stereo not drawn), the Potency was inconclusive [inhibitor, partial curve]. `Cc1ccc(OCCCNCCO)c(Br)c1` was tested, and the Potency was inconclusive [inhibitor, partial curve]. `Nc1ccccc1N=Cc1ccc(-c2cccc(Cl)c2)o1` was tested, and the Potency was inconclusive [inhibitor, partial curve]. `CCOP(=O)(Cc1cc(C(=O)CC)c(C)o1)OCC` was tested, and the Potency was inconclusive [inhibitor, full curve, poor fit]. In the case of `Cc1sc2c(c1C)CN(C(C)(C)C)CN2C(=O)c1ccccc1`, the Potency was inconclusive [inhibitor, full curve, poor fit]. `COc1ccc(O[C@H]2C=C[C@@H](c3ccccc3)O[C@@H]2CO/N=C/C[C@@H]2C=C[C@H](OC(C)=O)[C@@H](COC(C)=O)O2)cc1` was tested, and the Potency was inconclusive [inhibitor, partial curve]. With `Cc1ccccc1-c1nc(CS(=O)(=O)CC(=O)NC2CCCCC2C)c(C)o1` (stereo not drawn) the Potency was inconclusive [inhibitor, partial curve]. With `Cc1nc2nc(C)c(NS(=O)(=O)c3ccc(CC(C)C)cc3)c(=O)n2[nH]1` the Potency was inconclusive [inhibitor, single point]. `CCC(C)(C)n1nnnc1C(c1cc2cc(C)cc(C)c2[nH]c1=O)N1CCN(Cc2ccc3c(c2)OCO3)CC1` (stereo not drawn) was tested, and the Potency was inconclusive [inhibitor, partial curve]. For `COc1ccc(Nc2ccc(OC)cc2)cc1`, the Potency was active: 39.8 µM. For `CSc1n[nH]c(NCc2ccc(Cl)cc2)n1`, the “activity change, negative = inhibition” value was inactive: -2.02%. `CCOC(=O)c1cnc2ccc(C)cc2c1Sc1ccccc1` was tested, and the Potency was inconclusive [inhibitor, full curve]. For `CN1CCN(C2CC(=O)N(CCc3ccccc3)C2=O)CC1` (stereo not drawn), the Potency was inconclusive [inhibitor, partial curve]. In the case of `O=C(/C=C/c1ccco1)Nc1cccc2cccnc12`, the Potency was inconclusive [inhibitor, partial curve]. With `CC1CC(C)CN(S(=O)(=O)c2ccc(C(=O)N3CCN(c4ccccc4)CC3)cc2)C1` (stereo not drawn) the “activity change, negative = inhibition” value was inactive: -27.8%. In the case of `COCCNC(=O)c1c(NC(=O)c2ccc(Br)o2)n(Cc2ccccc2)c2nc3ccccc3nc12`, the Potency was inconclusive [inhibitor, partial curve]. In the case of `COC(=O)C1=C(C)NC(=O)C1(NS(=O)(=O)c1ccc(C)cc1)C(F)(F)F` (stereo not drawn), the Potency was inconclusive [inhibitor, full curve, poor fit]. For `CCCN(CCC)C(=O)c1nn(C)c2c1CSc1ccc(C)cc1-2`, the “activity change, negative = inhibition” value was inactive: 6.26%. `CC(C)Cc1nc(N2CCN(C(=O)c3ccco3)CC2)c(C#N)c2c1CCC2` was tested, and the Potency was inconclusive [inhibitor, partial curve]. For `Cc1nc(NCc2ccco2)c2c3c(sc2n1)CCC3`, the Potency was inconclusive [inhibitor, single point]. With `O=C(COc1ccccc1)Nc1ccc(S(=O)(=O)NCc2ccco2)cc1` the Potency was inconclusive [inhibitor, partial curve]. `CC(C)c1cc(C(C)C)c(S(=O)(=O)NNC(=O)c2ccncc2)c(C(C)C)c1` was tested, and the Potency was inconclusive [inhibitor, single point]. `COc1ccc(-n2cc(CNCCN3CCOC3=O)c(-c3ccccc3Cl)n2)cc1` was tested, and the Potency was inconclusive [inhibitor, partial curve]. For `CCN1C(=O)/C(=C/N2CCc3ccccc3C2)SC1=S`, the “activity change, negative = inhibition” value was inactive: -4.69%. In the case of `O=c1[nH]cnc2sc3c(c12)CCC3`, the “activity change, negative = inhibition” value was inactive: 1.46%. For `COC(=O)C1=C(C)N(CCc2ccccc2)C(=O)/C1=C\c1ccco1`, the Potency was active: 44.7 µM. In the case of `COc1ccccc1-c1cc(=O)c2c(O)ccc([N+](=O)[O-])c2o1`, the Potency was inconclusive [inhibitor, partial curve, poor fit]. For `Cn1c(N2CCCC2)nc2c1c(=O)[nH]c(=O)n2C`, the “activity change, negative = inhibition” value was inactive: -1.78%. For `COc1ccccc1-c1coc2c(CN(C)C)c(O)ccc2c1=O`, the Potency was inconclusive [inhibitor, partial curve]. `CCOc1ccccc1C(=O)NC1CCNCC1` was tested, and the Potency was inconclusive [inhibitor, partial curve]. `CC(C(=O)Nc1cc([N+](=O)[O-])ccc1Cl)N1CCN(c2ccccc2O)CC1` (stereo not drawn) was tested, and the “activity change, negative = inhibition” value was inactive: -12.1%. For `COc1ccccc1NC(=O)CN(Cc1ccccc1)S(C)(=O)=O`, the Potency was inconclusive [inhibitor, single point]. In the case of `Cc1cc(-c2ccc(C)c(S(=O)(=O)NCCN3CCC(C)CC3)c2)on1`, the “activity change, negative = inhibition” value was inactive: 8.43%. `CCCS(=O)(=O)c1nc(S(=O)(=O)c2ccc(C)cc2)c(N2CCC3(CC2)OCCO3)s1` was tested, and the “activity change, negative = inhibition” value was inactive: 2.1%. For `O=C(CSc1ccc(-c2ccco2)nn1)N1CCCCC1`, the Potency was inconclusive [inhibitor, single point]. `COc1cccc(NC(=O)CCN2C(=O)c3ccccc3S2(=O)=O)c1` was tested, and the “activity change, negative = inhibition” value was inactive: 3.02%. In the case of `Cc1c(N2C(=O)/C(=C\C3CC=CCC3)SC2=S)c(=O)n(-c2ccccc2)n1C` (stereo not drawn), the Potency was active: 28.2 µM. In the case of `Cc1ccc(C)c(Cn2nc(-c3ccccc3)ccc2=O)c1`, the Potency was inconclusive [inhibitor, single point]. With `COc1ccc(CCNCc2c(C(=O)O)c(C)n(Cc3cccc(Cl)c3)c2C)c(OC)c1OC` the “activity change, negative = inhibition” value was inactive: -0.0576%. `CCOc1cc(C(=O)Nc2nnc(C)s2)cc(OCC)c1OCC` was tested, and the “activity change, negative = inhibition” value was inactive: 4.33%. With `Cc1cc(C)cc(NC(=O)NNC(=O)c2cc3occc3[nH]2)c1` the Potency was inconclusive [inhibitor, partial curve].
